# Reference: the supplement of paper PMC4604168 (melanoma cell lines)
# Some of the results follow. Repeats are few or missing, and single values can be far off.
# How the values were obtained:
# Assay in all cases: cell count relative to DMSO control; melanoma cells; higher = more viable cells
# Conditions in all cases: library dose: low library concentration; 72 h
# MZ2-MEL = system: MZ2-MEL
# MeWo = system: MeWo
# RPMI7951 = system: RPMI7951
# RVH-421 = system: RVH-421
# SkMel28 = system: SkMel28
# SkMel2 = system: SkMel2
# SkMel30 = system: SkMel30
# UACC62 = system: UACC62
# 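Further: cell number obtained by counting DAPI-stained nuclei in high-throughput microscope images with image analysis software, screen run in 1,536-well plates.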
SMILES,cell count (MZ2-MEL) [%],cell count (MeWo) [%],cell count (RPMI7951) [%],cell count (RVH-421) [%],cell count (SkMel28) [%],cell count (SkMel2) [%],cell count (SkMel30) [%],cell count (UACC62) [%]
"Cc1cc(Nc2cc(N3CCN(C)CC3)nc(/C=C/c3ccccc3)n2)n[nH]1 + Nc1nc(F)nc2c1ncn2[C@@H]1O[C@H](CO)[C@@H](O)[C@@H]1O [fludarabine] (first compound 0.04 µM, partner dose 0.2 µM)",104,36.3,113,91.8,87.2,10.7,15.2,93.6
"CC(C)C[C@H](NC(=O)[C@H](Cc1ccccc1)NC(=O)c1cnccn1)B(O)O [Bortezomib] + C=CCNC1=C2C[C@@H](C)C[C@H](OC)[C@H](O)[C@@H](C)/C=C(\C)[C@H](OC(N)=O)[C@@H](OC)/C=C\C=C(/C)C(=O)NC(=CC1=O)C2=O [Tanespimycin] (first compound 0.001 µM, partner dose 0.002 µM)",76.1,70.8,73.1,64.6,101,88.5,53.4,63
"Cc1cc(Nc2cc(N3CCN(C)CC3)nc(/C=C/c3ccccc3)n2)n[nH]1 + Nc1ccn([C@@H]2O[C@H](CO)[C@@H](O)C2(F)F)c(=O)n1 [gemcitabine] (first compound 0.04 µM, partner dose 0.0004 µM)",90.6,101,96.4,109,99,97.1,128,91
"Cc1cn(-c2cc(NC(=O)c3ccc(C)c(Nc4nccc(-c5cccnc5)n4)c3)cc(C(F)(F)F)c2)cn1 [nilotinib] + Cc1cc(Nc2cc(N3CCN(C)CC3)nc(/C=C/c3ccccc3)n2)n[nH]1 [ENMD2076] (first compound 0.2 µM, partner dose 0.04 µM)",102,105,92,70.3,98.2,69.6,115,85.4
"CC(C)C[C@H](NC(=O)[C@H](Cc1ccccc1)NC(=O)c1cnccn1)B(O)O [Bortezomib] + CNC(=O)c1cc(Oc2ccc(NC(=O)Nc3ccc(Cl)c(C(F)(F)F)c3)cc2)ccn1 [sorafenib] (first compound 0.001 µM, partner dose 0.4 µM)",47.6,73.1,57.4,49.1,90.6,98.1,83,55.5
"COc1ccc(C2=N[C@@H](c3ccc(Cl)cc3)[C@@H](c3ccc(Cl)cc3)N2C(=O)N2CCNC(=O)C2)c(OC(C)C)c1 [Nutlin-3] + Nc1ncn([C@H]2C[C@H](O)[C@@H](CO)O2)c(=O)n1 [decitabine] (first compound 0.1 µM, partner dose 0.1 µM)",83.9,96.1,92.2,74.8,81.4,92.7,118,75.4
"Cn1c(=O)n(-c2ccc(C(C)(C)C#N)cc2)c2c3cc(-c4cnc5ccccc5c4)ccc3ncc21 + O=C(O)c1ccc2c(c1)nc(Nc1cccc(Cl)c1)c1ccncc12 [CX4945] (first compound 0.004 µM, partner dose 0.4 µM)",96.7,70.1,98.3,96.9,76.6,84.5,92.7,97.3
"Cc1cn(-c2cc(NC(=O)c3ccc(C)c(Nc4nccc(-c5cccnc5)n4)c3)cc(C(F)(F)F)c2)cn1 [nilotinib] + O=C(O)[C@@H]1[O][Sb](=[O])([O][Sb]2(=[O])[O][C@H]([C@H](O)CO)[C@H](O)[C@H](C(=O)O)[O]2)[O][C@H]([C@H](O)CO)[C@@H]1O [stibogluconate] (first compound 0.2 µM, partner dose 2 µM)",90.7,102,81.6,91.7,104,93.5,93.3,117
"CC(C)C[C@H](NC(=O)[C@H](Cc1ccccc1)NC(=O)c1cnccn1)B(O)O [Bortezomib] + CS(=O)(=O)CCNCc1ccc(-c2ccc3ncnc(Nc4ccc(OCc5cccc(F)c5)c(Cl)c4)c3c2)o1 [lapatinib] (first compound 0.001 µM, partner dose 0.8 µM)",67,82.1,68.9,56.4,114,108,68.3,94.5
"CC(C)C[C@H](NC(=O)[C@H](Cc1ccccc1)NC(=O)c1cnccn1)B(O)O [Bortezomib] + CC(=O)c1c(C)c2cnc(Nc3ccc(N4CCNCC4)cn3)nc2n(C2CCCC2)c1=O [palbociclib] (first compound 0.001 µM, partner dose 0.04 µM)",58.5,61,48.6,32.1,81.6,81.7,45,59.5
"COc1ccc(C2=N[C@@H](c3ccc(Cl)cc3)[C@@H](c3ccc(Cl)cc3)N2C(=O)N2CCNC(=O)C2)c(OC(C)C)c1 [Nutlin-3] + CC(=O)c1c(C)c2cnc(Nc3ccc(N4CCNCC4)cn3)nc2n(C2CCCC2)c1=O [palbociclib] (first compound 0.1 µM, partner dose 0.04 µM)",81.2,88.4,80.2,83,96.9,93.4,87.4,82.9
"Cc1cc(Nc2cc(N3CCN(C)CC3)nc(/C=C/c3ccccc3)n2)n[nH]1 + CC(C)C[C@H](NC(=O)[C@H](Cc1ccccc1)NC(=O)c1cnccn1)B(O)O [Bortezomib] (first compound 0.04 µM, partner dose 0.001 µM)",93.6,92.9,86,77.6,92.8,90.9,111,104
"COc1ccc(C2=N[C@@H](c3ccc(Cl)cc3)[C@@H](c3ccc(Cl)cc3)N2C(=O)N2CCNC(=O)C2)c(OC(C)C)c1 [Nutlin-3] + Cn1c(=O)n(-c2ccc(C(C)(C)C#N)cc2)c2c3cc(-c4cnc5ccccc5c4)ccc3ncc21 [NVP-BEZ235] (first compound 0.1 µM, partner dose 0.004 µM)",102,89.1,100,118,82,90.4,89.4,81.3
"Cc1cn(-c2cc(NC(=O)c3ccc(C)c(Nc4nccc(-c5cccnc5)n4)c3)cc(C(F)(F)F)c2)cn1 [nilotinib] + C=CCNC1=C2C[C@@H](C)C[C@H](OC)[C@H](O)[C@@H](C)/C=C(\C)[C@H](OC(N)=O)[C@@H](OC)/C=C\C=C(/C)C(=O)NC(=CC1=O)C2=O [Tanespimycin] (first compound 0.2 µM, partner dose 0.002 µM)",88.3,105,69.1,82.7,105,84.2,114,91.8
"Cc1cn(-c2cc(NC(=O)c3ccc(C)c(Nc4nccc(-c5cccnc5)n4)c3)cc(C(F)(F)F)c2)cn1 [nilotinib] + NC1(c2ccc(-c3nc4ccn5c(=O)[nH]nc5c4cc3-c3ccccc3)cc2)CCC1 [MK2206] (first compound 0.2 µM, partner dose 0.4 µM)",90.8,87.7,92.6,97.5,81.9,89.9,91,81.9
"Cc1cn(-c2cc(NC(=O)c3ccc(C)c(Nc4nccc(-c5cccnc5)n4)c3)cc(C(F)(F)F)c2)cn1 [nilotinib] + CS(=O)(=O)c1ccc(C(=O)Nc2ccc(Cl)c(-c3ccccn3)c2)c(Cl)c1 [vismodegib] (first compound 0.2 µM, partner dose 1 µM)",102,98.4,88.7,105,93.7,98.2,81.2,122
"CC(C)C[C@H](NC(=O)[C@H](Cc1ccccc1)NC(=O)c1cnccn1)B(O)O [Bortezomib] + Nc1nc(F)nc2c1ncn2[C@@H]1O[C@H](CO)[C@@H](O)[C@@H]1O [fludarabine] (first compound 0.001 µM, partner dose 0.2 µM)",68.9,35.5,63.1,61,74.3,6.01,21.9,64.3
"CC(C)C[C@H](NC(=O)[C@H](Cc1ccccc1)NC(=O)c1cnccn1)B(O)O [Bortezomib] + Nc1cccc2c1CN(C1CCC(=O)NC1=O)C2=O [lenalidomide] (first compound 0.001 µM, partner dose 1 µM)",77.5,91.9,83.5,55.7,98.6,91.6,94.2,79.7
"COc1ccc(C2=N[C@@H](c3ccc(Cl)cc3)[C@@H](c3ccc(Cl)cc3)N2C(=O)N2CCNC(=O)C2)c(OC(C)C)c1 [Nutlin-3] + Cn1c(Nc2ccc(C(F)(F)F)cc2)nc2cc(Oc3ccnc(-c4ncc(C(F)(F)F)[nH]4)c3)ccc21 [CHIR265] (first compound 0.1 µM, partner dose 0.08 µM)",88.1,72.2,83.8,60.3,49.8,90.9,67.5,45.7
"COc1ccc(C2=N[C@@H](c3ccc(Cl)cc3)[C@@H](c3ccc(Cl)cc3)N2C(=O)N2CCNC(=O)C2)c(OC(C)C)c1 [Nutlin-3] + CN1CCN(c2ccc3nc(-c4c(N)c5c(F)cccc5[nH]c4=O)[nH]c3c2)CC1 [Dovitinib] (first compound 0.1 µM, partner dose 0.1 µM)",96.7,102,114,87.1,92.4,101,99.7,83.2
"Cc1cn(-c2cc(NC(=O)c3ccc(C)c(Nc4nccc(-c5cccnc5)n4)c3)cc(C(F)(F)F)c2)cn1 [nilotinib] + Nc1ccn([C@@H]2O[C@H](CO)[C@@H](O)C2(F)F)c(=O)n1 [gemcitabine] (first compound 0.2 µM, partner dose 0.0004 µM)",97.7,96.5,99.3,94,76.5,88.9,75.6,94.4
